For assay [1], the target named is Keratin 16 (endogenous) (human (endogenous in HaCaT, CTRL and TOC keratinocytes)) (UniProt P08779). In words: co-IP; endogenous proteins; anti-K16 antibody on Dynabeads, 2 mg lysate of HaCaT/CTRL or TOC keratinocytes, overnight at 4 °C, NP-40 wash buffer (50 mM Tris pH 8.0, 150 mM NaCl, 1 mM EDTA, 1% NP40); blots with anti-iRHOM2 and anti-iRHOM1.
For assay [2] the target is unchanged. In words: proximity ligation; Duolink in situ kit on fixed CTRL and TOC keratinocytes, endogenous proteins, signal when within 40 nm; also after cyclic mechanical stretch (Flexcell).

By UniProt entry, the sequences of proteins in these tests, tags left out.
UniProt P08779: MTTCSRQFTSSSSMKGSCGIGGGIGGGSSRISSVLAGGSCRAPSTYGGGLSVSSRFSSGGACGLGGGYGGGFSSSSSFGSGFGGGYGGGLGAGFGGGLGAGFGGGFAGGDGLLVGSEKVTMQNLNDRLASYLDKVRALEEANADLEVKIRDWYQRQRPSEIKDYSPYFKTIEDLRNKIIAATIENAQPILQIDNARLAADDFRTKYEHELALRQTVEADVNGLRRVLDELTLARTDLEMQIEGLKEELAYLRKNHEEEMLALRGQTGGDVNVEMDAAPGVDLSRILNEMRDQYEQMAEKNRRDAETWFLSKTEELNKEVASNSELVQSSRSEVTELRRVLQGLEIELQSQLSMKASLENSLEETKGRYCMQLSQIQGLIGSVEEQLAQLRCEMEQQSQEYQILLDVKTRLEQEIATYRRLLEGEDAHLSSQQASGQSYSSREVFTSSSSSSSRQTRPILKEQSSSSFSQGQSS

Changes are numbered by the printed parent chain. No constants are given. Whether binding was seen depends on the method and setting. In cells and extracts the contact can be indirect. Some results given as binding are weak or reduced against the parent protein; the word gives no strength.

B1: iRHOM1 (endogenous) (protein, UniProt Q96CC6 1-855)
chain: MSEARRDSTSSLQRKKPPWLKLDIPSAVPLTAEEPSFLQPLRRQAFLRSVSMPAETAHISSPHHELRRPVLQRQTSITQTIRRGTADWFGVSKDSDSTQKWQRKSIRHCSQRYGKLKPQVLRELDLPSQDNVSLTSTETPPPLYVGPCQLGMQKIIDPLARGRAFRVADDTAEGLSAPHTPVTPGAASLCSFSSSRSGFHRLPRRRKRESVAKMSFRAAAALMKGRSVRDGTFRRAQRRSFTPASFLEEDTTDFPDELDTSFFAREGILHEELSTYPDEVFESPSEAALKDWEKAPEQADLTGGALDRSELERSHLMLPLERGWRKQKEGAAAPQPKVRLRQEVVSTAGPRRGQRIAVPVRKLFAREKRPYGLGMVGRLTNRTYRKRIDSFVKRQIEDMDDHRPFFTYWLTFVHSLVTILAVCIYGIAPVGFSQHETVDSVLRNRGVYENVKYVQQENFWIGPSSEALIHLGAKFSPCMRQDPQVHSFIRSAREREKHSACCVRNDRSGCVQTSEEECSSTLAVWVKWPIHPSAPELAGHKRQFGSVCHQDPRVCDEPSSEDPHEWPEDITKWPICTKNSAGNHTNHPHMDCVITGRPCCIGTKGRCEITSREYCDFMRGYFHEEATLCSQVHCMDDVCGLLPFLNPEVPDQFYRLWLSLFLHAGILHCLVSICFQMTVLRDLEKLAGWHRIAIIYLLSGVTGNLASAIFLPYRAEVGPAGSQFGILACLFVELFQSWQILARPWRAFFKLLAVVLFLFTFGLLPWIDNFAHISGFISGLFLSFAFLPYISFGKFDLYRKRCQIIIFQVVFLGLLAGLVVLFYVYPVRCEWCEFLTCIPFTDKFCEKYELDAQLH
As for B1, the binding result in assay [1] is reported as “no binding”.

B2: iRHOM2 (endogenous, control keratinocytes) (protein, UniProt Q6PJF5 1-856)
chain: MASADKNGGSVSSVSSSRLQSRKPPNLSITIPPPEKETQAPGEQDSMLPEGFQNRRLKKSQPRTWAAHTTACPPSFLPKRKNPAYLKSVSLQEPRSRWQESSEKRPGFRRQASLSQSIRKGAAQWFGVSGDWEGQRQQWQRRSLHHCSMRYGRLKASCQRDLELPSQEAPSFQGTESPKPCKMPKIVDPLARGRAFRHPEEMDRPHAPHPPLTPGVLSLTSFTSVRSGYSHLPRRKRMSVAHMSLQAAAALLKGRSVLDATGQRCRVVKRSFAFPSFLEEDVVDGADTFDSSFFSKEEMSSMPDDVFESPPLSASYFRGIPHSASPVSPDGVQIPLKEYGRAPVPGPRRGKRIASKVKHFAFDRKKRHYGLGVVGNWLNRSYRRSISSTVQRQLESFDSHRPYFTYWLTFVHVIITLLVICTYGIAPVGFAQHVTTQLVLRNKGVYESVKYIQQENFWVGPSSIDLIHLGAKFSPCIRKDGQIEQLVLRERDLERDSGCCVQNDHSGCIQTQRKDCSETLATFVKWQDDTGPPMDKSDLGQKRTSGAVCHQDPRTCEEPASSGAHIWPDDITKWPICTEQARSNHTGFLHMDCEIKGRPCCIGTKGSCEITTREYCEFMHGYFHEEATLCSQVHCLDKVCGLLPFLNPEVPDQFYRLWLSLFLHAGVVHCLVSVVFQMTILRDLEKLAGWHRIAIIFILSGITGNLASAIFLPYRAEVGPAGSQFGLLACLFVELFQSWPLLERPWKAFLNLSAIVLFLFICGLLPWIDNIAHIFGFLSGLLLAFAFLPYITFGTSDKYRKRALILVSLLAFAGLFAALVLWLYIYPINWPWIEHLTCFPFTSRFCEKYELDQVLH
For the molecule B2, the binding entry in assay [2] and in assay [1] was “binds” throughout.

B3: iRHOM2 of TOC keratinocytes (p.Ile186Thr) (protein, UniProt Q6PJF5 1-856)
chain: B2 chain with I186T
For the molecule B3, the binding result in assay [2] and in assay [1] was “binds” each time.
